PubChem BioAssay AID212 (DTP/NCI, 2004)
Records with an inconclusive call do not appear. For part of its entries the source gives two or more results. This list holds those alone. An entry can have further records. The values listed for one entry are repeated measurements across runs, samples, wells, individuals or studies.

System: BDF1 mice, colon carcinoma 38 sc, T/C %
Assay: NCI In Vivo Anticancer Drug Screen. Data for tumor model Colon Carcinoma 38 (subcutaneous) in B6D2F1 (BDF1) mice
Settings: endpoint: median tumor weight (est.), higher = larger tumour
Summary of the method: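 Compound antitumor activity was assessed in mice carrying transplantable tumors. Survival or tumor size was recorded, and each value is the treated-group measurement divided by that of the vehicle-treated control group.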

[1] = dose: 25.0 mg/kg/injection, schedule: Q07DX002 (ip), vehicle: Klucel (hydroxypropylcellulose) (HPC)
[2] = dose: 50.0 mg/kg/injection, schedule: Q07DX002 (ip), vehicle: Klucel (hydroxypropylcellulose) (HPC)
[3] = dose: 12.5 mg/kg/injection, schedule: Q07DX002 (ip), vehicle: saline
[4] = dose: 50.0 mg/kg/injection, schedule: Q07DX002 (ip), vehicle: saline
[5] = dose: 12.5 mg/kg/injection, schedule: Q07DX002 (ip), vehicle: Klucel (hydroxypropylcellulose) (HPC)
[6] = dose: 200.0 mg/kg/injection, schedule: Q07DX002 (ip), vehicle: saline with Tween-80
[7] = dose: 100.0 mg/kg/injection, schedule: Q07DX002 (ip), vehicle: saline with Tween-80
[8] = dose: 400.0 mg/kg/injection, schedule: Q07DX002 (ip), vehicle: saline with Tween-80
[9] = dose: 100.0 mg/kg/injection, schedule: Q07DX002 (ip), vehicle: saline
[10] = dose: 25.0 mg/kg/injection, schedule: Q07DX002 (ip), vehicle: saline
[11] = dose: 100.0 mg/kg/injection, schedule: Q07DX002 (ip), vehicle: Klucel (hydroxypropylcellulose) (HPC)
[12] = dose: 200.0 mg/kg/injection, schedule: Q07DX002 (ip), vehicle: Klucel (hydroxypropylcellulose) (HPC)

## Cc1ccc(NCCN(C)C)c2c(=O)c3cc(O)ccc3sc12
[1]
  T/C: 86 % of control and 119 % of control
[2]
  T/C: 60 % of control and 93 % of control

## Cc1c(N)nc(C(CC(N)=O)NCC(N)C(N)=O)nc1C(=O)NC(C(=O)NC(C)C(O)C(C)C(=O)NC(C(=O)NCCc1nc(-c2nc(C(=O)NCCCNCCCc3ccccn3)cs2)cs1)C(C)O)C(OC1OC(CO)C(O)C(O)C1OC1OC(CO)C(O)C(OC(N)=O)C1O)c1cnc[nH]1 (centres undefined)
[3]
  T/C: 44 % of control and 77 % of control
[4]
  T/C: 30 % of control and 62 % of control

## CCC[CH2][Sn]1([CH2]CCC)[O]C2C(CO)OC(n3ccc(N)nc3=O)C2[O]1 (centres undefined)
dose: 0.78 mg/kg/injection, schedule: Q07DX002 (ip), vehicle: Klucel (hydroxypropylcellulose) (HPC)
  T/C: 65 % of control and 104 % of control
dose: 3.12 mg/kg/injection, schedule: Q07DX002 (ip), vehicle: Klucel (hydroxypropylcellulose) (HPC)
  T/C: 73 % of control and 103 % of control
dose: 6.25 mg/kg/injection, schedule: Q07DX002 (ip), vehicle: Klucel (hydroxypropylcellulose) (HPC)
  T/C: 54 % of control and 101 % of control
[5]
  T/C: 38 % of control and 106 % of control

## O=[N+]([O-])c1ccc(Sc2ccncn2)c([N+](=O)[O-])c1
dose: 50.0 mg/kg/injection, schedule: Q07DX002 (ip), vehicle: saline with Tween-80
  T/C: 19 % of control and 100 % of control

## CN=C(N)N/N=C(\C)c1ccc2c(c1)Cc1ccccc1-2
[6]
  T/C: 81 % of control and 119 % of control

## CCN(CC)CC[n+]1ccc2c(C)c3[nH]c4ccc(O)cc4c3c(C)c2c1
dose: 6.25 mg/kg/injection, schedule: Q07DX002 (ip), vehicle: saline
  T/C: 27 % of control and 92 % of control
[3]
  T/C: 53 % of control and 91 % of control

## O=C1NC(O)c2ccccc2O1 (centres undefined)
dose: 200.0 mg/kg/injection, schedule: Q07DX002 (ip), vehicle: suspension in saline
  T/C: 50 % of control and 80 % of control
dose: 400.0 mg/kg/injection, schedule: Q07DX002 (ip), vehicle: suspension in saline
  T/C: 71 % of control and 123 % of control
dose: 800.0 mg/kg/injection, schedule: Q07DX002 (ip), vehicle: suspension in saline
  T/C: 39 % of control and 98 % of control

## COCCCNC1=C(C#N)C(=O)NC(c2cccc([N+](=O)[O-])c2)S1 (centres undefined)
[7]
  T/C: 84 % of control and 121 % of control
[8]
  T/C: 121 % of control and 169 % of control

## O=C1c2c(O)ccc(O)c2C(=O)c2c(NCCNCCO)ccc(NCCNCCO)c21
dose: 1.5 mg/kg/injection, schedule: Q07DX003 (ip), vehicle: saline with Tween-80
  T/C: 97 % of control and 160 % of control
dose: 1.5 mg/kg/injection, schedule: Q07DX003 (iv), vehicle: acid diluted with saline
  T/C: 55 % of control and 86 % of control
dose: 6.0 mg/kg/injection, schedule: Q07DX003 (ip), vehicle: saline with Tween-80
  T/C: 28 % of control, 40 % of control, 117 % of control

## CC(=O)N(C)c1ccc(Nc2cc(C)[nH]c3ccc4ncnc4c23)cc1
[4]
  T/C: 82 % of control and 122 % of control
[9]
  T/C: 48 % of control and 104 % of control

## CONc1ccn(C2OC(CO)C(O)C2O)c(=O)n1 (centres undefined)
[10]
  T/C: 72 % of control and 106 % of control

## CN(C)N=Nc1cn[nH]c1C(N)=O
[5]
  T/C: 72 % of control and 108 % of control

## CC1OC1C(=O)C1(O)C(C)C(O)C23OC2(C(O)c2c(O)cccc2C3=O)C1O (centres undefined)
dose: 16.0 mg/kg/injection, schedule: Q07DX002 (ip), vehicle: Klucel (hydroxypropylcellulose) (HPC)
  T/C: 86 % of control and 122 % of control

## O=NN(CCCl)C(=O)NC1CCCCC1
dose: 2.5 mg/kg/injection, schedule: Q07DX002 (ip), vehicle: Klucel (hydroxypropylcellulose) (HPC)
  T/C: 39 % of control and 90 % of control
dose: 5.0 mg/kg/injection, schedule: Q07DX002 (ip), vehicle: Klucel (hydroxypropylcellulose) (HPC)
  T/C: 47 % of control, 57 % of control, 96 % of control

## CN(Cc1cnc2nc(N)nc(N)c2n1)c1c(Cl)cc(C(=O)NC(CCC(=O)O)C(=O)O)cc1Cl (centres undefined)
dose: 25.0 mg/kg/injection, schedule: Q07DX003 (ip), vehicle: Klucel (hydroxypropylcellulose) (HPC)
  T/C: 63 % of control and 94 % of control

## CC1(C)CC(=O)C(CSC(=O)c2ccccc2)C(=O)C1
[2]
  T/C: 65 % of control and 103 % of control

## COc1cc(NCc2ccc3nc(N)nc(N)c3c2C)cc(OC)c1OC
dose: 3.75 mg/kg/injection, schedule: Q07DX002 (ip), vehicle: sodium bicarbonate
  T/C: 152 % of control and 198 % of control
dose: 7.5 mg/kg/injection, schedule: Q07DX002 (ip), vehicle: sodium bicarbonate
  T/C: 75 % of control and 150 % of control
dose: 15.0 mg/kg/injection, schedule: Q07DX002 (ip), vehicle: sodium bicarbonate
  T/C: 110 % of control and 166 % of control
dose: 30.0 mg/kg/injection, schedule: Q07DX002 (ip), vehicle: sodium bicarbonate
  T/C: 37 % of control and 118 % of control
dose: 60.0 mg/kg/injection, schedule: Q07DX002 (ip), vehicle: sodium bicarbonate
  T/C: 15 % of control and 48 % of control

## C1CC[N-]CC1.C1CC[N-]CC1.C1CC[N-]CC1.[Cl][Rh]([Cl])[Cl]
[3]
  T/C: 75 % of control and 105 % of control
[4]
  T/C: 85 % of control and 175 % of control

## OC(CCl)CN1CC[N+]2(CC1)CC[N+]1(CCN(CC(O)CCl)CC1)CC2 (centres undefined)
dose: 200.0 mg/kg/injection, schedule: Q07DX002 (ip), vehicle: saline
  T/C: 49 % of control and 75 % of control
dose: 400.0 mg/kg/injection, schedule: Q07DX002 (ip), vehicle: saline
  T/C: 29 % of control and 56 % of control

## COc1ccc2c(NCCCCCCNc3c4ccccc4nc4cc(OC)ccc34)c3ccccc3nc2c1
dose: 0.62 mg/kg/injection, schedule: Q07DX002 (ip), vehicle: lactic acid
  T/C: 52 % of control and 166 % of control
dose: 1.25 mg/kg/injection, schedule: Q07DX002 (ip), vehicle: lactic acid
  T/C: 74 % of control, 95 % of control, 104 % of control
dose: 2.5 mg/kg/injection, schedule: Q07DX002 (ip), vehicle: lactic acid
  T/C: 33 % of control, 77 % of control, 89 % of control
dose: 5.0 mg/kg/injection, schedule: Q07DX002 (ip), vehicle: lactic acid
  T/C: 46 % of control, 64 % of control, 103 % of control
dose: 10.0 mg/kg/injection, schedule: Q07DX002 (ip), vehicle: lactic acid
  T/C: 26 % of control, 84 % of control, 105 % of control

## Nc1nc(-c2cccc3ccccc23)cc2ccccc12
[7]
  T/C: 36 % of control and 116 % of control
[8]
  T/C: 45 % of control and 99 % of control

## COC(=O)[C@@H]1c2cc3c(c(O)c2[C@@H](OC)C[C@@]1(C)O)C(=O)c1c(O)cc2c(c1C3=O)OC1O[C@@]2(C)[C@H](O)[C@@H](N(C)C)[C@@H]1O
[4]
  T/C: 58 % of control and 104 % of control
[9]
  T/C: 18 % of control and 90 % of control

## COC(=O)c1ccoc1
[9]
  T/C: 45 % of control and 81 % of control

## Nc1ncnc2c1nnn2C1OC(CO)C(O)C1O (centres undefined)
[5]
  T/C: 71 % of control and 162 % of control
[1]
  T/C: 85 % of control and 114 % of control
[2]
  T/C: 65 % of control and 268 % of control
[11]
  T/C: 50 % of control and 221 % of control
[12]
  T/C: 54 % of control and 171 % of control

## COc1cc2cc3cc4cc(OC)c(OC)cc4c(C)[n+]3cc2cc1OC (tested in a mixture with another compound)
[10]
  T/C: 66 % of control and 102 % of control

## O=C(O)Cc1cccc2c(=O)c(-c3ccccc3)c(-c3ccccc3)oc12
[11]
  T/C: 86 % of control and 117 % of control
[12]
  T/C: 52 % of control and 117 % of control

## NC(=O)c1ncn(C2OC(CO)C(O)C2O)c1O (centres undefined)
[11]
  T/C: 49 % of control and 109 % of control

## O=S(=O)(N=N/C=C1\C=CC=CN1O)c1cccs1
[6]
  T/C: 57 % of control and 95 % of control

## O=C1OCC2(C(=O)O)C(=O)OCC12 (centres undefined)
dose: 12.5 mg/kg/injection, schedule: Q07DX002 (ip), vehicle: saline with Tween-80
  T/C: 31 % of control and 70 % of control
